# Reference: PubChem BioAssay AID504332 (National Center for Advancing Translational Sciences (NCATS), 2011)
# Values joined by “and” are separate entries in the source; they are usually repeats but may differ in a detail not shown here. Identical values can stand only once. The campaign covered roughly 350,000 compounds. About 31,000 (8.9%) were called active. This list was built around the results that the source calls inconclusive (neither active nor inactive); the mix of calls is not that of the screen. Calls follow the shape of the dose curve; as a rule, active = well fitted inhibition curve with a large enough effect; inconclusive = small, poorly fitted or top-dose-only effect; inactive = no such curve, though single readings can be large or run the other way. A potency beside an inconclusive call is a rough fit, not a confirmed value.
# Molecular target: Histone-lysine N-methyltransferase EHMT2 (Homo sapiens) (UniProt Q96KQ7)
# Assay: qHTS Assay for Inhibitors of Histone Lysine Methyltransferase G9a; also: nearly all actives have a fitted effect of over 75% in size
# Details: G9a H3K9 monomethylation, AlphaScreen, 2 h; activity, negative = inhibition: at 59 µM (top of the series) unless noted
# How it was run: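 Chemiluminescent proximity detection of H3K9 monomethylation, read after 10 min bead incubation in the dark. Reaction: 20 nM G9a, 500 nM biotin-H3K9 peptide, 20 uM SAM cofactor, 2 h, room temperature, following 15 min enzyme-compound preincubation.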
# % is scaled to controls: 0 for no effect and ±100 for the full control effect; potency is read from the fitted curve at half-maximal effect; tags tell the direction and shape of the fitted curve.
# Sequence of UniProt Q96KQ7 (Q96KQ7 whole entry, looked up): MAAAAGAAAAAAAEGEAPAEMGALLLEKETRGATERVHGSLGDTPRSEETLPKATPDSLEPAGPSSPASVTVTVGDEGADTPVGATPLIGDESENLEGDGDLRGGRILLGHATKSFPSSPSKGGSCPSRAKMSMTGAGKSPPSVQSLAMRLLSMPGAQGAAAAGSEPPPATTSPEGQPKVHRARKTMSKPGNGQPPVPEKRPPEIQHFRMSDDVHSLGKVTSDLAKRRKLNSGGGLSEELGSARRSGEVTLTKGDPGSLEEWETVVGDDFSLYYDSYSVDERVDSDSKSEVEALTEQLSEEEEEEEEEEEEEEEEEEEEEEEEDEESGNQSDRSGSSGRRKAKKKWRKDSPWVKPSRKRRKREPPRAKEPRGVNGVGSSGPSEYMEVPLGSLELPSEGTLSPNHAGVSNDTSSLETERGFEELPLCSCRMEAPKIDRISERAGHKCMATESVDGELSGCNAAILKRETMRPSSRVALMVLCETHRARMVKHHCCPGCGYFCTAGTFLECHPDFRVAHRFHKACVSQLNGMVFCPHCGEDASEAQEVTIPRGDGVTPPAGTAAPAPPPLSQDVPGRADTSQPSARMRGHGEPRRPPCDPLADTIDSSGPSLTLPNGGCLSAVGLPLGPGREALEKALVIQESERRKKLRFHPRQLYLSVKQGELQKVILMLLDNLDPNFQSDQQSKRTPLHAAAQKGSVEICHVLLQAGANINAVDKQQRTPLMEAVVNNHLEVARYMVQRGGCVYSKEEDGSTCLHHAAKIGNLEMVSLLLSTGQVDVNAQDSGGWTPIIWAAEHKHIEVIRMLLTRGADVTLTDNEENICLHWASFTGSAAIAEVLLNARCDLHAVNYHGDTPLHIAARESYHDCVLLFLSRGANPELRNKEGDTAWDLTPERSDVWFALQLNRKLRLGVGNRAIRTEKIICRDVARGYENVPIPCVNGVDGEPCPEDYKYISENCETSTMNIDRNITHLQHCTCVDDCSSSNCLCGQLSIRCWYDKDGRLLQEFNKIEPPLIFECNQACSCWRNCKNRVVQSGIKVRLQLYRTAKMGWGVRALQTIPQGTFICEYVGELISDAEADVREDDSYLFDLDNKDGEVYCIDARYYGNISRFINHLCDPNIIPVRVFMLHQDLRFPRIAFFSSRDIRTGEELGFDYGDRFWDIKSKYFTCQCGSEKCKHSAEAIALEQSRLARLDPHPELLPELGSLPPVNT
SMILES,Potency,"activity, negative = inhibition"
O=C1CC(c2ccc(F)cc2)CC2=C1C(c1ccc([N+](=O)[O-])o1)Nc1ccccc1N2 (centres undefined),"inconclusive: 50.1 µM [inhibitor, partial curve, poor fit]",–
Cc1ccc(C)n1-n1cnc2scc(-c3cccs3)c2c1=O,–,inactive: 12.7% [at 12.7 µM]
OCCN(CCO)Cc1ccc(Br)cc1,active: 20 µM,–
Cc1ccsc1-c1nc(CSCC(=O)N2CCN(c3ccccc3)CC2)c(C)o1,active: 44.7 µM,–
CCOc1ccc(/C=C(\C#N)C(=O)Nc2sc3c(c2C(=O)OC)C(C(=O)OC)CC3)cc1OC (centres undefined),active: 1.41 µM,–
C/C(=C\c1ccccc1)C(=O)c1c(C)cc(C)[nH]c1=O,"inconclusive: 50.1 µM [inhibitor, partial curve, poor fit]",–
CCCCOC(=O)c1ccc(Nc2nc3ccccc3c3nnc(C)n23)cc1,–,inactive: -3.55%
COc1ccccc1NS(=O)(=O)c1cc(NC(=O)Nc2cccc(C)c2)ccc1N1CCCCC1,active: 25.1 µM,–
CCOC(=O)c1ccc(N2CSC3=C(C#N)C(c4ccc(OC)cc4OC)CC(=O)N3C2)cc1 (centres undefined),active: 12.6 µM,–
O=C(COC(=O)CNC(=O)C1CCCCC1)NCc1ccccc1,–,inactive: 3.72% [at 12.7 µM]
COc1ccccc1-n1c(C)c(C(=O)O)c2cc(OC)c3ccccc3c21,"inconclusive: 70.8 µM [inhibitor, single point]",–
O=C(CN1C(=O)/C(=C/c2ccccc2)SC1=S)NC1CCS(=O)(=O)C1 (centres undefined),–,inactive: -8.86% [at 102 µM]
Oc1ccc(Cl)cc1-c1cc(-c2ccccc2Cl)[nH]n1,–,inactive: 17.1%
CCCCN(C(=O)CCNC(=O)NC12CC3CC(CC(C3)C1)C2)c1c(N)n(CCC)c(=O)[nH]c1=O,–,inactive: -27% [at 12.7 µM]
O=[N+]([O-])c1cc(Cl)cc(/C=N\Nc2ccccn2)c1O,–,inconclusive: -66.8% [inhibitor]
CCOc1ccccc1OCC(=O)Nc1ccc(OC)c(S(=O)(=O)N2CCCCC2)c1,–,inactive: -31.1% [at 102 µM]
S=c1[nH]nc(C2CC2c2ccc(Cl)cc2)n1-c1ccc(Cl)cc1 (centres undefined),"inconclusive: 39.8 µM [inhibitor, single point]",–
Cc1nnsc1C(=O)N1CCCC(Nc2ccc(C(C)C)cc2)C1 (centres undefined),"inconclusive: 79.4 µM [inhibitor, single point]",–
O=C(/C=C/Nc1ccc(F)cc1F)c1ccco1,"inconclusive: 44.7 µM [inhibitor, partial curve]",–
COc1ccccc1C(=O)N1CCN(c2ccc(N3CCOCC3)nn2)CC1,"inconclusive: 1.41 µM [inhibitor, full curve, poor fit]",–
CCCN(CCC)C(=O)CSc1ncccc1C(=O)O,"inconclusive: 89.1 µM [inhibitor, single point]",–
Cc1cc(C(F)(F)F)n2nc(C)c(-c3ccc(Cl)cc3)c2n1,–,inactive: -8.78%
COC(=O)c1ccc(-n2c(C)ccc2-c2ccccc2)cc1,"inconclusive: 12.6 µM [inhibitor, partial curve]",–

SMILES,Potency,"activity, negative = inhibition"
O=C(NCC(c1ccco1)N1CCN(c2ccccc2)CC1)c1ccc2c(c1)OCO2 (centres undefined),"inconclusive: 39.8 µM [inhibitor, partial curve, poor fit]",–
COc1ccc(Cc2ccc(OC)c(N)c2)cc1N,"inconclusive: 5.01 µM [inhibitor, full curve, poor fit]",–
CCS(=O)(=O)N1CCN(Cc2ccccc2OC)CC1,active: 2.51 µM,–
Cc1c(Cl)cccc1NC(=O)CCCn1cnc([N+](=O)[O-])n1,"inconclusive: 89.1 µM [inhibitor, single point]",–
COc1cc(COc2ccc3c(C)c(CC(=O)O)c(=O)oc3c2C)cc(OC)c1OC,–,inactive: 9% [at 102 µM]
CCN(c1ccccc1)S(=O)(=O)c1ccc(F)c(C(=O)Nc2ccc(C)cc2)c1,–,inactive: 3.61%
CC(=O)Nc1ccc2nc3c(=O)n(C)c(=O)n(C)c3nc2c1,active: 39.8 µM,–
COc1cccc(-n2c(CN3CCN(c4ccc(C)cc4)C(C)C3)nc3ccc([N+](=O)[O-])cc3c2=O)c1 (centres undefined),"inconclusive: 1.41 µM [inhibitor, full curve]",–
COc1ccc(CNCCSc2nnnn2-c2ccccc2)c(OC)c1,–,inactive: -1.66%
c1ccc(-n2c(SCc3nc(-c4cccs4)no3)nnc2-c2ccco2)cc1,"inconclusive: 1.58 µM [inhibitor, single point]",–
Cc1ccc(O)c(N=Cc2cccs2)c1,–,inactive: -19%
COc1ccc(/C=N/Nc2cc(C)nc(N3CCOCC3)n2)cc1,–,inactive: -45.4% [at 102 µM]
CCOc1ccc(C(=O)C(CN2CCOCC2)c2ccccc2)cc1 (centres undefined),"inconclusive: 89.1 µM [inhibitor, single point]",–
C=C(C)COc1ccc(-c2nc(N)ncc2-c2ccccc2OC)c(O)c1,"inconclusive: 22.4 µM [inhibitor, partial curve, poor fit]",–
CCOC(=O)c1c([N+](=O)[O-])c(C)[nH]c(=O)c1C#N,"inconclusive: 56.2 µM [inhibitor, partial curve]",–
COCCCNC(=O)c1ccc(C2SCC(=O)N2Cc2ccco2)cc1 (centres undefined),–,inactive: -5.03% [at 12.7 µM]
O=C(OCC(=O)N1CCCc2ccccc21)c1cccc(S(=O)(=O)N2CCOCC2)c1,"inconclusive: 79.4 µM [inhibitor, single point]",–
Cc1ccc(F)c(NC(=O)CCc2ccccc2)c1,"inconclusive: 35.5 µM [inhibitor, single point]",–
CN1CCN(C2Cc3ccccc3Sc3ccc(Cl)cc32)CC1 (centres undefined),"inconclusive: 3.55 µM [inhibitor, partial curve, poor fit] and inconclusive: 22.4 µM [inhibitor, single point] and inconclusive: 37.7 µM [inhibitor, single point]",–
CCCCCC/C(=N\NS(C)(=O)=O)c1ccccc1,"inconclusive: 89.1 µM [inhibitor, single point]",–
COC(=O)CSc1nnc2n(-c3ccc(OC)cc3)c(=O)c3c4c(sc3n12)CCCCC4,–,inactive: -1.39% [at 102 µM]
Clc1ccc(N2CCN(Cc3ccco3)CC2)cc1,active: 5.01 µM,–
CC1(C)CC(=O)C2=C(C1)N(CC1CCCO1)C(=O)C2(O)C(F)(F)F (centres undefined),"inconclusive: 89.1 µM [inhibitor, single point]",–

SMILES,Potency,"activity, negative = inhibition"
CCN(c1ccccc1)S(=O)(=O)c1cc(C(=O)OC(C)C(=O)Nc2ccc3c(c2)OCCO3)ccc1C (centres undefined),active: 39.8 µM,–
CCOc1ccc(NC(=S)N(CCc2c(C)[nH]c3ccc(C)cc23)Cc2cccnc2)cc1,"inconclusive: 89.1 µM [inhibitor, single point]",–
C=CCSc1nnc(NC(=O)c2nc(SCC)ncc2Cl)s1,active: 7.94 µM,–
COc1ccc(CN2CCCN(CC(=O)Nc3ccc4c(c3)OCCO4)S2(=O)=O)cc1,–,inactive: 5.91% [at 12.7 µM]
COc1cc2c(cc1OC)CN(C(=O)CCCN1C(=O)c3ccccc3C1=O)CC2,"inconclusive: 70.8 µM [inhibitor, partial curve, poor fit]",–
COc1ccc(N2CCN(Cc3nc4scc(-c5cccs5)c4c(=O)[nH]3)CC2)cc1,–,inactive: -8.7% [at 102 µM]
Cc1ccc(CSc2nc3cccnc3n2Cc2ccc(C(=O)NCCc3cccs3)cc2)cc1,–,inactive: 3.14%
O=C(CSc1nnc(COc2cccc3cccnc23)o1)c1ccc(F)cc1,"inconclusive: 50.1 µM [inhibitor, partial curve]",–
Cc1ccn2cc(-c3cccc(NC(=O)c4cccs4)c3)nc2c1,"inconclusive: 31.6 µM [inhibitor, partial curve, poor fit]",–
CCN1CCCc2cc(CN(CCN3CCOCC3)C(=S)Nc3ccc(OC)cc3)ccc21,–,inactive: 1.52%
CC(C)[C@H]1C=C(C(=O)O)O[C@@H](OCCCCO)C1,"inconclusive: 3.16 µM [inhibitor, single point]",–
CCOCCCNC(=O)CS(=O)(=O)Cc1nc(-c2cccc(OC)c2)oc1C,"inconclusive: 50.1 µM [inhibitor, partial curve]",–
COc1ccc(N(CC(=O)NCCc2ccc(Cl)cc2)S(=O)(=O)c2c(C)nn(C)c2C)cc1,–,inactive: 1.32%
COC(=O)c1[nH]c2ccccc2c1NC(=O)CN1CC(C)OC(C)C1 (centres undefined),"inconclusive: 1.58 µM [inhibitor, single point]",–
Cn1c(CCC(=O)O)nc2cc(S(=O)(=O)N3CCCCC3)ccc21,–,inconclusive: -76.2% [inhibitor] [at 12.7 µM]
COc1cccc(NC(=O)Cc2cccs2)c1,"inconclusive: 89.1 µM [inhibitor, single point]",–
COCC(O)CSc1c([N+](=O)[O-])nc(C)n1Cc1ccc(OC)c([N+](=O)[O-])c1 (centres undefined),"inconclusive: 15.8 µM [inhibitor, partial curve, poor fit]",–
CCOc1ccc(N(C(C)C(=O)NCc2ccco2)S(C)(=O)=O)cc1 (centres undefined),"inconclusive: 79.4 µM [inhibitor, single point]",–
OCCNc1nc(-c2ccccc2)c2cc(Br)ccc2n1,–,inactive: 16%
O=C1c2ccc(Cl)cc2S(=O)(=O)c2cccc(C(=O)N3CCN(c4ccc(Cl)cn4)CC3)c21,–,inconclusive: -79.3% [inhibitor] [at 2.33 µM]
COc1ccc(C)cc1Nc1nc(N)c2cc(OC)c(OC)cc2n1,"inconclusive: 28.2 µM [inhibitor, single point] and inconclusive: 79.4 µM [inhibitor, single point]",–
CC(C(=O)Nc1ccccc1F)N1CCN(C)CC1 (centres undefined),"inconclusive: 0.708 µM [inhibitor, single point]",–
O=C(NCC1CCN(c2ccc(S(=O)(=O)N3CCOCC3)cc2)CC1)Nc1ccccc1,–,inactive: 18.2% [at 102 µM]
